# Measurements from ChEMBL document CHEMBL4888484, “Replenishing the malaria drug discovery pipeline: Screening and hit evaluation of the MMV Hit Generation Library 1 (HGL1) against asexual blood stage Plasmodium falciparum ,using a nano luciferase reporter read-out” (2022).
# The campaign covered roughly 150,000 compounds. About 540 (0.36%) showed an effect of 50% or more. The list shows a part of the results.
# Test system: Plasmodium falciparum
# Assay: Primary screen in NF54 nanoGlo assay, in single point, at 2uM, 72h; a lower Z score goes with more inhibition
# Assay type: functional, Erythrocyte
# Conditions: timepoint 72 hour
Structure (SMILES),% Inhibition [%],Z score
Cc1nc(N2CCCC2)nc(C)c1NS(=O)(=O)Cc1ccccc1,-14,2.16
O=C(CN1c2ccccc2-c2ccccc2S1(=O)=O)NC1CCCC1,3,-0.53
C[C@@H](C(=O)NCCc1nnc2ccccn12)c1ccc(C[C@@H]2CCCC2=O)cc1,-9,1.22
CC1CN(CC2CCN(c3ccc(S(N)(=O)=O)cn3)CC2)CC(C)O1 (stereo not given),-4,0.75
C=CC[C@H](C)C(=O)N1CCC(n2cnc3ccc(F)cc32)CC1,-4,0.75
Fc1ccc(Oc2ncccc2CNc2ncccc2Cl)cc1F,-8,0.99
COc1ccc(CNC(C)C2CCCO2)cn1 (stereo not given),-13,1.71
Brc1ccc(Nc2ccc3ccccc3n2)nc1,6,-1.22
Cc1ccccc1C(C)CC(=O)N1CCCC(N2CCNCC2=O)C1 (stereo not given),1,-0.15
Cc1ccsc1CNC(=O)c1ccnc2c(C(N)=O)cnn12,-2,0.31
Cc1cc(NC(=O)C2CCN(Cc3nc4ccccc4[nH]3)CC2)ccc1Br,-10,1.47
Cc1cc(C)c2nc(-n3cncn3)c(C)cc2c1,-12,1.44
O=C(Nc1cccc(Cl)c1)C1=NCCN1,-14,1.68
COc1ccc(-c2c(-c3ccc(Cl)cc3)[nH]c3c2c(=O)[nH]c(=O)n3C)cc1,-5,0.54
CC(C)(C)OC(=O)NCC1CCN(C(=O)c2snc(O)c2Cl)CC1,-7,0.89
CCn1ncc(CN(C)C(=O)CCn2nc(C)c(Cl)c2C)c1C,11,-1.4
Cc1cc(C)cc(N2C(=O)C3N=NN(c4cccc(C(F)(F)F)c4)C3C2=O)c1 (stereo not given),5,-0.61
O=C(CCc1nccs1)N1CCCC[C@@H]1Cc1ccc(F)cc1,-17,3.23
O=C(COC(=O)c1ccccn1)Nc1ccc2c(c1)CCC2,-1,0.18
CCn1nc(C(=O)NCc2ccncc2)c2c1CC[C@H](O)C2,1,-0.27
c1c[nH]c(C2CCN(c3ncnc4[nH]ccc34)CC2)n1,-9,1.08
COc1ccc(C[C@H](CO)CNc2nc3ccccc3o2)cc1O,-4,0.81
CC(=O)Nc1c(-c2ccccn2)nsc1C(=O)NC1CCCC1,6,-0.6
COc1ncccc1[C@H]1CC(=O)NCc2nc(N3CCCC3)sc21,-5,1
C[C@](O)(CNS(=O)(=O)Cc1ccccc1)c1ccco1,-6,1.11
CN(CC1CC(O)C1)C(=O)N[C@@H](Cc1ccccc1)c1ccccc1 (stereo not given in full),-3,0.46
CN1CCCC(NC(=O)N2CCCC2C2CCC2)C1 (stereo not given),-1,0.08
N#Cc1ccccc1CN1C(=O)CN(C2CCCC2)C1=O,5,-0.5

Structure (SMILES),% Inhibition [%],Z score
CCc1onc(C)c1C(=O)NCCC(=O)Nc1cccnc1,2,-0.15
CC1(C)CN(C(=O)[C@@H]2Cc3ccccc3N2)CCO1,-2,0.32
CCN1CCC[C@H](NC(=O)c2cccc(Oc3nccs3)c2)C1,-9,1.14
Cc1nn(C)c(N)c1C(=O)N[C@H]1COCC1(C)C,-3,0.66
Cc1csc(NC(=O)CCc2nc3ccccc3c(=O)[nH]2)n1,-5,1.08
CCC=C(C)C(=O)N[C@@H](CNC(=O)OC(C)(C)C)C1CC1,0,-0.02
CCCC(=O)N1CCC[C@H]1C(=O)N1CCn2cncc2C1,-5,0.86
CO[C@@H](CS(=O)(=O)Nc1c(C#N)c(C)c2ccccn12)C1CC1,-4,0.52
Cc1ccc(Nc2nc(NC[C@H]3CCCO3)nc3[nH]ncc23)cc1C,-3,0.47
Cc1ccc(NC(=O)[C@H](C)NS(=O)(=O)c2ccc3c(c2)CCN3C(=O)N2CCCC2)nc1,-6,0.63
COc1cccc(OC)c1C(=O)Nc1ccc(Oc2ccc(Br)c3ccccc23)c(Cl)c1,2,-0.2
O=C(CC1CCCCC1)Nc1nc[nH]n1,14,-1.87
CCNc1cc(CNC(=O)Nc2cc3n(n2)CCN(C)C3)ccn1,-13,2.61
CS(=O)(=O)N1CCC(C(=O)N2CCC(=C3CC3)CC2)CC1,-10,1.16
Cc1cccnc1C[C@H](C)NC(=O)Cn1nnnc1N,-2,0.31
CC(NC(=O)NC1CCCCC1OCc1ccccc1)c1nc[nH]n1 (stereo not given),-8,0.72
C[C@@H](O)[C@@H]1NC(=O)[C@@H]2C[C@H](NC(=O)c3ccc4ccccc4c3)CN2C1=O,1,-0.12
Cc1ccc(C2(CN3CCCC3)CCN(C(=O)c3cnc(C)cn3)CC2)nc1,-4,0.79
CN(Cc1ccoc1)C(=O)c1cc(F)c[nH]1,-7,0.63
CC(C)c1ccc(NC(=O)C2CCN(C(=O)c3ccc4c(c3)nnn4C3CCCC3)CC2)cc1,-5,0.94
CC(C)NC(=O)OC[C@H]1CCCCN1Cc1cnn2ccccc12,2,-0.31
CC1CC(N)CCN1C(=O)CCN1c2ccccc2CCC1C (stereo not given),-3,0.36
COc1ccc(-c2n[nH]c3nc(-c4ccc(F)cc4)cc(C(=O)NCc4ccc(F)cc4)c23)cc1,-23,2.09
C[C@H](NC(=O)N1CCN(S(=O)(=O)c2ccccc2Cl)CC1)c1ccc2c(c1)OCCO2,14,-1.18
C[C@H](NC(=O)Cc1nnc(-c2ccsc2)o1)c1ccc(F)cc1,-7,0.69
CC1CCC(C)N(C(=O)c2ccc3nnnn3c2)C1 (stereo not given),-10,1.86
CCNc1cc(CNC(=O)Nc2conc2C)ccn1,-2,0.26
